Results taken from PubChem BioAssay AID1159614 (National Center for Advancing Translational Sciences (NCATS), 2016).
The campaign covered roughly 45,000 compounds. About 65 (0.1%) were called active. Calls follow the shape of the dose curve; as a rule, active = well fitted activation curve with a large enough effect; inconclusive = small, poorly fitted or top-dose-only effect; inactive = no such curve, though single readings can be large or run the other way. The list shows a part of the results. Square brackets hold non-standard residues; d marks the D form. Peptide text beside a SMILES is read from it. * marks the point of attachment. Sta = CC(C)C[C@H](N)[C@@H](O)CC(=O)O; Isovaleryl = CC(C)CC(=O)*

biological target: Galactocerebrosidase (Homo sapiens) (UniProt P54803); assay: A Novel Cell-Based Assay to Identify Small Molecules for B -Galactocerebrosidase; conditions: 145M-Twi-hGALC-G270D cells (Twitcher mouse brain line with human GALC G270D), HMU-beta-Gal fluorescence, 48 h; series mostly up to 57.5 µM; activation: at the top concentration; also: 0% is about no effect; nearly all actives have a fitted effect of over 65% in size
In short: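 Mutant human GALC (G270D), stably expressed in a Twitcher mouse brain cell line lacking endogenous GALC, is measured in live-treated cells via 6-hexadecanoylamino-4-methylumbelliferyl-β-galactoside hydrolysis (0.1 mM final, pH 5.2) with fluorescent detection.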

Chain of UniProt P54803 (P54803 whole entry, looked up): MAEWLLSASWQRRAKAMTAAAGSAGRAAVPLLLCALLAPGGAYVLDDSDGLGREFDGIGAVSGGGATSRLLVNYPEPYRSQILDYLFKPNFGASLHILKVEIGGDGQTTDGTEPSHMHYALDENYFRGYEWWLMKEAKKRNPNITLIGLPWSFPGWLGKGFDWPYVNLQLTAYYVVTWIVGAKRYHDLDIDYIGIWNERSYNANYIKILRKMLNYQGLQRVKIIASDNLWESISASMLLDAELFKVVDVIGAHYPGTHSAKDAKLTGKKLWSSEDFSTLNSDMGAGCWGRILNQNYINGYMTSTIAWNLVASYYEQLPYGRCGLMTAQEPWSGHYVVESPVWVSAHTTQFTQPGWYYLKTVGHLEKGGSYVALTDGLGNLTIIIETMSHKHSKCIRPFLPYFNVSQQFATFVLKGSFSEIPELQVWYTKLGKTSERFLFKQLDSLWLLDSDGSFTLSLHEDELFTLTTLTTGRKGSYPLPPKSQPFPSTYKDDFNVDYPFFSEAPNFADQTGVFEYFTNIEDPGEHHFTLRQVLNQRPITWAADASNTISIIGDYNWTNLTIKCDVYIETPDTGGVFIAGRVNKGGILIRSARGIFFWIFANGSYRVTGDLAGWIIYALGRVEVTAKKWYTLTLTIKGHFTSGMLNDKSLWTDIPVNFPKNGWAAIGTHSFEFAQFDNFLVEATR

activation, inactive:
COc1ccc(CNC(=O)c2ccc(-c3nc(CS(=O)c4ccc(C)cc4)c(C)o3)cc2)cc1 (stereo not given) -2.55%
O=C(CCS(=O)(=O)c1cccc2nonc12)Nc1ccc(F)cc1F -6.6%
Cc1ccc(-c2nnn3c2nc(NCc2ccc4c(c2)OCO4)c2ccccc23)cc1 -5.59%
COc1ccccc1N1CCN(C(=O)c2ccc3c(c2)CCN3S(=O)(=O)c2ccccc2)CC1 -11.8%
Cc1oc(-c2ccccc2Cl)nc1CSc1nncn2c1cc1occc12 -13.3%
COc1ccc(Br)cc1CNC(=O)Cn1ncn2nc(-c3cccs3)cc2c1=O -19.8%
Cc1ccc(CNC(=O)C(C)n2c(=O)cc(-c3ccccc3)c3c(C)nn(C)c32)cc1 (stereo not given) -9.85%
Cc1ccc2nc(-c3c[nH]c4ccccc34)c(Nc3ccc(F)cc3)n2c1 13%
O=C(NCCc1ccc(F)cc1)C(=O)NCC(c1cccs1)S(=O)(=O)c1ccccc1 (stereo not given) -25.8%
Cc1ccc(OCC(=O)Nc2nc(-c3ccc(Br)cc3)ns2)cc1 -11.9%
COc1ccccc1CNC(=O)c1ccc(CSc2nc3ccncc3n2Cc2cccc(F)c2)cc1 -16.2%
O=C(CC(c1cccs1)N1Cc2ccccc2C1=O)Nc1cccc(F)c1 (stereo not given) 7.34%
CCCn1ccc2c(OCC(=O)Nc3ccc(OC)c(OC)c3)cccc2c1=O -6.07%
COc1ccc2c(Sc3ccccc3)c(C(=O)NCc3cc(Br)ccc3OC)[nH]c2c1 -17.9%
Cc1cccc(-c2nc(C)c(CCNC(=O)C(=O)Nc3ccc(C)c(C)c3)s2)c1 -18.6%
CCOc1ccccc1CNc1nc2nc(C)c(CC(=O)OC)c(=O)n2[nH]1 -14.6%
Cc1cccc(C(=O)Nc2ccc(S(=O)(=O)N3CCCCC3c3cccnc3)cc2)c1 (stereo not given) 3.79%
COc1ccc(Cl)cc1S(=O)(=O)N1CCN(C(=O)c2cc(-c3ccc(Br)cc3)n[nH]2)CC1 -5.37%
Cc1ccc(-n2ncc3c(N4CCN(Cc5ccccc5)CC4)ncnc32)cc1 -16.8%
Cc1cc(C)c(/C=C2\C(=O)Nc3ccccc32)[nH]1 -6.81%
O=C(CSc1nc(=O)[nH]c2c1CCC2)NCc1ccc(F)cc1 -9.02%
CN/C(=C\[N+](=O)[O-])NCCSCc1csc(CN(C)C)n1 -14.3%
O=C(CCc1ccccc1)N1CCc2c([nH]c3ccccc23)C1c1ccc(F)cc1 (stereo not given) 5.32%
CCCCNC(=O)c1sc2ncccc2c1-n1cccc1 -17%
O=C(CCCn1c(=O)c2ccccc2n(Cc2cccc(F)c2)c1=O)NCc1ccccc1Cl -6.71%
O=C(Nc1ccc(S(=O)(=O)N(Cc2ccccc2)c2ccccc2)cc1)c1ccc(F)cc1 -23.4%
COc1cc(CNc2ccc3[nH]c(=O)[nH]c3c2)cc(Cl)c1OCc1ccc(F)cc1 -16.5%
COc1ccc(NC(=O)CN(c2ccc(C)cc2)S(=O)(=O)c2cccs2)cc1 -13.2%
Cc1nn(C(C)(C)C)c(OC(=O)c2c(F)cccc2F)c1Sc1ccccc1 -9.08%
Cc1cccc(NS(=O)(=O)c2ccc3c(c2)CCCN3C(=O)C2CCC2)c1C -0.995%
CN1C(=O)c2ccccc2Sc2ccc(NC(=O)c3ccc(C#N)cc3)cc21 -13.3%
COC(=O)C(CCSC)NC(=O)c1cc2c(n(-c3ccccc3)c1=O)CC(C)(C)CC2=O (stereo not given) -14.8%
Cc1cc2oc(C(=O)Nc3c(C)n(C)n(-c4ccccc4)c3=O)cc(=O)c2cc1C -4.97%
CCOC(=O)Cn1c(=O)n(-c2ccc(Cl)cc2)c2nc(-c3ccc(Cl)cc3)nc(C(N)=O)c21 -12%
COc1ccc(CCNc2nc3c(c(=O)n(C)c(=O)n3C)n2Cc2ccccc2Cl)cc1OC -19.9%
Cc1csc2nc(-c3cccc(NC(=O)c4c(F)cccc4F)c3)cn12 -18.8%
O=C(Cn1cc(S(=O)(=O)Cc2ccccc2F)c2ccccc21)NCc1ccccc1 5.51%
O=C(Nc1ccc(C(=O)OCc2cc(=O)n3c4c(sc3n2)CCCC4)cc1)c1cccc(F)c1 -7.99%
Cc1cccc(C(=O)Nc2ccccc2OCc2cc(=O)n3c(C)csc3n2)c1 -7.02%
Cc1ccc2c(=O)cc(C(=O)Nc3nc4ccc(Cl)cc4s3)oc2c1 -13.9%
COc1cc(OC)cc(N2C(=O)CSC23C(=O)Nc2ccccc23)c1 (stereo not given) -18.5%
COc1ccc(C(=O)OCc2cc(=O)n3nc(C4CC4)sc3n2)cc1OC 1.66%
CCOc1ccc(Nc2c3c(nc4nncn24)CCC3)cc1 -11%
CC(C)Oc1ccc(CNS(=O)(=O)c2ccc(-c3cc(C(F)(F)F)on3)s2)cc1 -11.8%
Cc1ccc(NC(=O)CCn2cnc3onc(-c4ccc(F)cc4)c3c2=O)c(Br)c1 -12.7%
Cc1ccc2nc(CN3CCN(S(=O)(=O)c4ccc(F)cc4)CC3)oc2c1 -16.4%
Cc1ccc2oc(C(=O)Nc3ccc(S(=O)(=O)Nc4nc(C)cc(C)n4)cc3)cc(=O)c2c1 -9.2%
CCCNC(=O)CSc1cn(CC(=O)N2CCCCCC2)c2ccccc12 -14.6%
CCOc1ccc(-c2nnc(SCC(=O)Nc3cccc(Cl)c3C)o2)cc1 -13.2%
O=C(CSc1nc2sc3c(c2c(=O)[nH]1)CCCC3)Nc1ccccc1F -6.18%
COc1ccc(CCNC(=O)CCn2c(=O)c3ccccc3n(Cc3ccccc3C)c2=O)cc1OC -6.93%
c1ccc(OCc2ccc(CCCN3CCOCC3)cc2)cc1 -6.7%
Cc1ccc(CNC(=O)C2CCCN(Cc3nc(-c4cccc(C)c4)oc3C)C2)cc1 (stereo not given) -10.8%
COc1cccc(NC(=O)C2CCN(c3nnc(-n4c(C)ccc4C)s3)CC2)c1 -0.2%
Cc1ccc2ccc(Cl)cc2n1 -9.7%
O=c1cc(O)c(Cl)c[nH]1 -13%
COc1ccc(-c2nc3ccccc3o2)cc1NC(=O)c1ccc(-c2cccc(Cl)c2C)o1 -6.93%
Cc1cc2c(cc1S(=O)(=O)Nc1cccc(Cl)c1C)OCCN2C -6.69%
Cc1c(-c2nc(-c3ccc4c(c3)OCO4)no2)nnn1-c1cccc(C(F)(F)F)c1 -27.7%
Cc1ccc(Cl)cc1N1CCN(C(=O)COCc2cc(-c3ccc4c(c3)OCO4)on2)CC1 -20.8%
CCN(CC)CCNC(=O)c1ccc2c(=O)n3nc(Nc4ccccc4)sc3nc2c1 -7.85%
CC1=C(C(=O)Nc2cccc(C(F)(F)F)c2)C2(CCN(C(C)C)CC2)OC1=O 16%
c1ccc(CCNc2nc(-c3ccccc3)cs2)cc1 3.88%
CCOC(=O)c1ccc(CN(Cc2ccc(C)cc2)S(=O)(=O)c2ccc(NC(C)=O)cc2)cc1 -2.67%
Cc1ccc(NC(=O)C2CCCN(S(=O)(=O)c3c(C)n[nH]c3C)C2)cc1C (stereo not given) -8.46%
CSc1cccc(NC(=O)C2CCN(S(=O)(=O)c3ccc4[nH]c5c(c4c3)CCCCC5)CC2)c1 2.16%
CC(C)CCNC(=O)Nc1cc(C(=O)NCc2cccc(F)c2)ccc1N1CCCC1 -28.1%
COc1ccc2c(c1)c1c(c(=O)n(Cc3ccccc3)c(=O)n1CC(=O)Nc1ccc(C)cc1C)n2C -8.93%
COc1ccc2c(c1)CC(C(=O)NCCN1CCN(c3cccc(C)c3C)CC1)CO2 (stereo not given) -9.79%
COc1ccc(C)cc1NC(=O)Cn1c(=O)oc2cc(S(=O)(=O)NCc3ccccc3)ccc21 9.4%
O=C(Nc1nnc(S(=O)(=O)N2CCCCCC2)s1)c1ccccc1Br -4.02%
CC(=O)Nc1ccc(Nc2nnc(-c3ccc(C)c(S(N)(=O)=O)c3)c3ccccc23)cc1 0.757%
COCCCNC(=O)CN1C(=O)CSc2ccc(S(=O)(=O)N3CCOCC3)cc21 4.87%
CCn1cc2nc(SCc3ccc(F)cc3)n(Cc3ccc(Cl)cc3)c(=O)c2n1 -13.1%
CCCS(=O)(=O)N1CC(=O)N(c2ccc(Cl)cc2)C(C)(C(=O)NC2CCCC2)C1 (stereo not given) -13%
O=C(NCc1ccccc1Cl)c1ccc(NC(=O)N2CCSc3ncccc32)cc1 1.51%
COCCn1c(SCC(=O)Nc2ccc(C(F)(F)F)cc2)nc2c([nH]c3ccccc32)c1=O 0.161%
Cc1ccc(NC(=O)c2oc3ccc(S(=O)(=O)N4CCC5(CC4)OCCO5)cc3c2C)c(C)c1 -8.82%
Cc1ccc(NC(=O)C(=O)NCCc2csc3nc(-c4ccccc4C)nn23)cc1Cl 2.01%
O=C(NCc1ccc2c(c1)CCN2C(=O)c1ccccc1)c1ccco1 -12%
O=C(Nc1ccc(S(=O)(=O)N(Cc2ccccc2)c2ccccc2)cc1)c1ccc([N+](=O)[O-])cc1 -20%
O=c1cc[nH]c(=S)[nH]1 -14.2%
CCCCCOC(=O)c1ccc(OC(=O)c2sc3ncn(Cc4cccc(F)c4)c(=O)c3c2C)cc1 -10%
CCOC(=O)c1cc(S(=O)(=O)N2CCN(c3ccc(F)cc3)CC2)[nH]n1 -8.04%
CCCN(CCC)CCNC(=O)C1CCCN(S(=O)(=O)c2cccc3nsnc23)C1 (stereo not given) -18.4%
Cc1ccc(C)c(N2CCN(CCCNC(=O)c3nnc(Cc4ccc(F)cc4Cl)o3)CC2)c1 -10.5%
CCC1=C(c2ccc(C)cc2)S(=O)(=O)N=C1N1CCC(C(=O)NCc2ccccc2Cl)CC1 -48.7%
CC(C)Cn1cc(C(=O)N2CCN(c3cccc(Cl)c3)CC2)c2c3ccccc3n(C)c2c1=O 0.978%
CCOC(=O)c1cnc2ccc(OCC)cc2c1Nc1cc(Cl)c(OC)cc1OC -17.6%
CC(=O)N1CCCc2cc(S(=O)(=O)N3CCCC(C(=O)Nc4cccc(Cl)c4C)C3)ccc21 (stereo not given) -18.2%
CC(C)CC(=O)N[C@H](C(=O)N[C@H](C(=O)N[C@@H](CC(C)C)[C@@H](O)CC(=O)N[C@@H](C)C(=O)N[C@@H](CC(C)C)[C@@H](O)CC(=O)O)C(C)C)C(C)C (Isovaleryl-VV[Sta]A[Sta]-OH) -11.7%
CCOc1cc2[nH]c(=O)n(CCCC(=O)N3CCN(c4cccc(Cl)c4)CC3)c(=O)c2cc1OCC -9.94%
Cc1nc(SCc2ccc(Cl)cc2)c(C#N)c(C)c1Cl -23.3%
COc1ccc(OC)c(CNc2sc3c(c2C(=O)Nc2cc(OC)ccc2OC)CCCC3)c1 -15.4%
COc1ccc(OC)c(NC(=O)N2CCC(CN3CCCCC3)CC2)c1 -9.17%
